Data: PubChem BioAssay AID504332 (National Center for Advancing Translational Sciences (NCATS), 2011)
The whole screen tested about 350,000 compounds, of which about 31,000 (8.9%) were called active. The inconclusive results got no clear call from the source; some entries with a clear call stand among them for comparison. The call rests on the fitted dose curve; in most records, active means well fitted inhibition curve with a large enough effect; inconclusive means small, poorly fitted or top-dose-only effect; inactive means no such curve, though single readings can be large or run the other way. A potency beside an inconclusive call is a rough fit, not a confirmed value.

Molecular target: Histone-lysine N-methyltransferase EHMT2 (Homo sapiens) (UniProt Q96KQ7)
Assay: qHTS Assay for Inhibitors of Histone Lysine Methyltransferase G9a; further: nearly all actives have a fitted effect of over 75% in size
Conditions: G9a H3K9 monomethylation, AlphaScreen, 2 h; activity, negative = inhibition: at 59 µM (top of the series) unless noted
In short: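 Enzyme 20 nM + cpd, 15 min RT; add b-H3K9 pep 500 nM / SAM 20 uM; 2 h RT; anti-H3K9me1 Ab 0.5 ug/mL + SA donor / anti-rabbit acceptor beads 20 ug/mL each, 10 min; AlphaScreen read.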
On the % scale 0 is the no-effect control and ±100 the full control effect; potency means the concentration at half of the fitted maximal effect; tags describe the fitted curve by direction and shape.

Sequence of UniProt Q96KQ7 (Q96KQ7 whole entry, looked up): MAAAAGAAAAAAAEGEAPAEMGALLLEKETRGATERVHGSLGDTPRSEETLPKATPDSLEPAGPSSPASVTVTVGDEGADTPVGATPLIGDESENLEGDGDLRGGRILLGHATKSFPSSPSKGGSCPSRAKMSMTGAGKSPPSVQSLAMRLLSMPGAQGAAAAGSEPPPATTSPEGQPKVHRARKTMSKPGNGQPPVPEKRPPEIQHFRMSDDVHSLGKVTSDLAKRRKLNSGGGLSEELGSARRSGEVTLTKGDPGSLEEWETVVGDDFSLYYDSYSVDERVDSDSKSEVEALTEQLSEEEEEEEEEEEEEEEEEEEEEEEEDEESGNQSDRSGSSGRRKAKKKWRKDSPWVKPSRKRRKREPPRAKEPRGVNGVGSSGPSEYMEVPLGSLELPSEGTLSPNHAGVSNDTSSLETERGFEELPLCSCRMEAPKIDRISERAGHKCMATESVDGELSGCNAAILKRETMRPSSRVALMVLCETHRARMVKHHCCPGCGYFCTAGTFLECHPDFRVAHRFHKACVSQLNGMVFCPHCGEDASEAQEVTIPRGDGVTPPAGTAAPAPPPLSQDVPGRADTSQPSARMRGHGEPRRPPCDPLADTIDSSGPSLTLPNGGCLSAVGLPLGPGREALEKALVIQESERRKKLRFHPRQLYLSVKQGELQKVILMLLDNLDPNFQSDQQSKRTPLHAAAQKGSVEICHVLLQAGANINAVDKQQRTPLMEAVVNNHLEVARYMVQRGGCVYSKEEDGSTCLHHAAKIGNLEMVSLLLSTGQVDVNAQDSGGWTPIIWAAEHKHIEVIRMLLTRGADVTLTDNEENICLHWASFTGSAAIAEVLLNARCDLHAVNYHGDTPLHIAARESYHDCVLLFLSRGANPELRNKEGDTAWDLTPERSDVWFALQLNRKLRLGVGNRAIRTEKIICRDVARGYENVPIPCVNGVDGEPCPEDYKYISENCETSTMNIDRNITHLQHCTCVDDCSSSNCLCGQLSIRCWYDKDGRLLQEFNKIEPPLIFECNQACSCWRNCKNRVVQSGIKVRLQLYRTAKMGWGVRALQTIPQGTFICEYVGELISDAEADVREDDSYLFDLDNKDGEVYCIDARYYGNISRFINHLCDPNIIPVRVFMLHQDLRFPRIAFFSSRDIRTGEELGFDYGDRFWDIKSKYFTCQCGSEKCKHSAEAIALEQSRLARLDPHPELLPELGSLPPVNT

| Compound | activity, negative = inhibition | Potency |
| --- | --- | --- |
| C=C(c1ccc(OCCO)cc1)c1ccc(OCCO)cc1 | inactive: -39.6% [at 12.7 µM] |  |
| O=C(O)c1cc2ccc3ccccc3c2oc1=O |  | inconclusive: 28.2 µM [inhibitor, single point] |
| Cc1ccccc1OCCCCn1nnc2sc3c(c2c1=O)CCC(C)C3 (stereo unspecified) |  | inconclusive: 39.8 µM [inhibitor, single point] |
| COC(=O)CSc1nnnn1-c1cccc2ccccc12 |  | inconclusive: 4.47 µM [inhibitor, partial curve, poor fit] |
| CCCCC1=CC2=CC(=O)C(C)(OC(=O)CC)C(=O)C2=CN1CCN1CCOCC1 (stereo unspecified) |  | inactive |
| Cc1ccc(C)c(N2CCN(c3ccncc3N)CC2)c1 |  | inconclusive: 17.8 µM [inhibitor, partial curve, poor fit] |
| O=C(O)c1csc(Br)c1Br |  | inconclusive: 89.1 µM [inhibitor, single point] |
| O=C(Nc1ccc2[nH]ccc2c1)c1ccccc1 |  | inconclusive: 70.8 µM [inhibitor, partial curve, poor fit] |
| COc1ccccc1CNC(=O)CSc1nnc(C)c2c(C)n(-c3ccccc3)nc12 |  | inconclusive: 5.62 µM [inhibitor, partial curve, poor fit] |
| COc1cccc(NC(=O)/C=C/c2ccccc2[N+](=O)[O-])c1 |  | inconclusive: 22.4 µM [inhibitor, single point] |
| Nc1nc2ccccc2[nH]1 |  | inactive |
| COc1cccc(Nc2ncc3nc(-c4ccc(F)cc4)c(=O)n(C[C@H]4CCCO4)c3n2)c1 | inactive: 15.4% [at 12.7 µM] |  |
| CCOC(=O)C1=C(O)/C(=C/c2ccc(OCC(=O)O)c(OC)c2)SC1=Nc1ccc(OCC)cc1 |  | inconclusive: 15.8 µM [inhibitor, partial curve, poor fit] |
| COc1ccc(CCNC(=O)CC2Nc3cc(C)c(C)cc3NC2=O)cc1OC (stereo unspecified) | inconclusive: -51.6% [inhibitor] |  |
| CC(=O)C1=C(c2ccccc2)N(C(C)=O)n2c(C)nnc2S1 |  | inconclusive: 31.6 µM [inhibitor, partial curve] |
| CC(=O)NCCC(=O)Nc1cc(S(=O)(=O)N2CCOCC2)ccc1N1CCCC1 |  | inconclusive: 50.1 µM [inhibitor, partial curve] |
| Cc1sc(NC(=O)CCl)c(C(=O)c2ccccc2)c1C |  | inconclusive: 5.62 µM [inhibitor, partial curve, poor fit] |
| COc1ccc(/C=N/n2c(=S)n(C)c3ccccc32)cc1OC |  | inconclusive: 15.8 µM [inhibitor, partial curve, poor fit] |
| O=C(O)C1C2CCC(CC2)C1C(=O)N1CCN(Cc2ccc(F)cc2)CC1 (stereo unspecified) |  | inconclusive: 79.4 µM [inhibitor, single point] |
| C[C@@]12C(=O)N(c3ccc(C(F)(F)F)cc3)C(=O)N1[C@@H]1c3ccccc3OC[C@@H]1[C@H]2c1ccccc1 |  | inactive |
| COC(=O)c1cc(=O)n(Cc2ccc3c(c2)OCO3)c(=Nc2ccccc2)s1 |  | inconclusive: 1.12 µM [inhibitor, full curve, poor fit] |
| C=CCc1ccccc1OC[C@H](O)CNC(C)C |  | inactive |

| Compound | activity, negative = inhibition | Potency |
| --- | --- | --- |
| CN(C)[C@H]1C(=O)C(C(=O)NCN2CCCC2)=C(O)[C@]2(O)C(=O)C3=C(O)c4c(O)cccc4[C@@](C)(O)[C@H]3C[C@@H]12 |  | active: 7.94 µM |
| O=S1(=O)N=C2CCCCCN2C(c2ccc(F)cc2)N1 (stereo unspecified) |  | inactive |
| COC(=O)/C(=C\Nc1ccc(Cl)cc1Cl)NC(=O)c1ccccc1 |  | inconclusive: 28.2 µM [inhibitor, partial curve, poor fit] |
| O=c1c(-c2ccccc2)c[nH]n1-c1cccc([N+](=O)[O-])c1 |  | inconclusive: 50.1 µM [inhibitor, partial curve] |
| Cc1c(Cl)cccc1NC(=O)CCOc1ccccc1 |  | inconclusive: 39.8 µM [inhibitor, single point] |
| Cc1cc(/C=N/N2CCN(C)CC2)c(C)n1-c1ccc(Cl)cc1 |  | active: 44.7 µM |
| COc1ccc2c(c1)N(C)/C(=C1/SC(=S)N(NC(C)=O)C1=O)S2 |  | active: 70.8 µM |
| Cc1oc(-c2ccccc2F)nc1CN1CCC(C(=O)NCc2cccs2)CC1 |  | inconclusive: 79.4 µM [inhibitor, partial curve, poor fit] |
| COC(=O)c1oc2ccc(Cl)cc2c1-n1cccc1 |  | inconclusive: 39.8 µM [inhibitor, partial curve, poor fit] |
| COc1ccc(-c2cn(-c3ccc(C)cc3)c(=O)n2CC(=O)Nc2ccc(OC)c(OC)c2)cc1 |  | inactive |
| C[C@H](NC(=O)[C@@H]1Cc2ccccc2CN1)C(=O)Nc1ccc2c(c1)OCO2 |  | inconclusive: 79.4 µM [inhibitor, single point] |
| Cc1cccc(C)c1NC(=O)CS(=O)(=O)c1nc(-c2ccc(Cl)cc2)cn1-c1ccccc1 |  | inconclusive: 10 µM [inhibitor, partial curve, poor fit] |
| CN(N=Nc1cccc([N+](=O)[O-])c1)c1cccc([N+](=O)[O-])c1 |  | inconclusive: 44.7 µM [inhibitor, single point] |
| CC(CC(=O)N(CCC1=CCCCC1)c1c(N)n(Cc2ccccc2)c(=O)[nH]c1=O)c1ccccc1 (stereo unspecified) |  | inconclusive: 50.1 µM [inhibitor, partial curve, poor fit] |
| COc1ccc(OC)c(NC(=O)CN2C(=O)C(=O)N(Cc3ccccc3)C2=O)c1 |  | inconclusive: 3.55 µM [inhibitor, single point] |
| O=C(COc1ccc(/C=N/NC(=O)c2ccncc2)cc1)Nc1cccc([N+](=O)[O-])c1 |  | inactive |
| COc1ccc(NC(=O)CSc2nc(-c3cccc(C)c3)[nH]c2-c2ccccc2)cc1OC |  | inconclusive: 11.2 µM [inhibitor, partial curve] |
| CC(=O)N1CCc2c(sc3c2c(=O)n(CCc2ccccc2)c(=O)n3Cc2ccccc2C)C1 |  | inconclusive: 17.8 µM [inhibitor, single point] |
| CCOC(=O)c1c(C)n(C)c2ccc(O)c(CN(CC)CC)c12 |  | inconclusive: 7.94 µM [inhibitor, full curve] |
| O=C1C(=O)N(O)C2CCCCC2N1O (stereo unspecified) |  | active: 7.94 µM |
| CCOC(=O)C1CCCN(C(=O)c2ccc3oc(CCc4ccccc4)nc3c2)C1 (stereo unspecified) |  | inactive |
| O=C(CSc1nc2ccccc2[nH]1)N1CCN(C(=O)c2ccco2)CC1 |  | inconclusive: 25.1 µM [inhibitor, single point] |

| Compound | activity, negative = inhibition | Potency |
| --- | --- | --- |
| Cc1cccc(N2CCN(S(=O)(=O)c3ccc4c(c3)NC(=O)CS4)CC2)c1C |  | inconclusive: 0.316 µM [inhibitor, full curve, poor fit] |
| COc1ccc(CN2C(=O)CN=C2Nc2ccc(C)cc2C)cc1 | inconclusive: -52.2% [inhibitor] |  |
| Cc1ccc(OCCNC(=O)c2ccccc2N)cc1 |  | inconclusive: 39.8 µM [inhibitor, single point] |
| CCCOc1ccc(/C=N/Nc2cccc([N+](=O)[O-])c2)c(O)c1 |  | inconclusive: 1.12 µM [inhibitor, full curve, poor fit] |
| CCc1noc(C)c1C(=O)N1CCN(S(=O)(=O)c2ccc(C(C)=O)cc2)CC1 |  | active: 39.8 µM |
| COC(=O)CNc1c(-c2ccccn2)nc2ccc(Br)cn12 | inconclusive: -77.3% [inhibitor] |  |
| Cc1cc(N2CCN(C(=O)c3cccs3)CC2)c(F)cc1[N+](=O)[O-] |  | inconclusive: 63.1 µM [inhibitor, partial curve, poor fit] |
| O=c1oc2c(CN3CCOCC3)c(O)c(Cl)cc2c2c1CCC2 |  | inconclusive: 56.2 µM [inhibitor, partial curve, poor fit] |
| CN(C)c1ccc(NC(=O)N2CCOCC2)cc1 |  | active: 3.98 µM |
| CCOc1ccc(C=Nc2cccc3ncccc23)cc1 |  | inconclusive: 70.8 µM [inhibitor, single point] |
| CCOc1ccc(CN2CCNC(=O)C2CC(=O)OC)cc1 (stereo unspecified) |  | inconclusive: 89.1 µM [inhibitor, single point] |
| O=C(O)c1ccc(Cl)c(S(=O)(=O)NCc2ccco2)c1 |  | inconclusive: 89.1 µM [inhibitor, single point] |
| O=C(CC1CC2CCC1C2)Nc1nc(-c2ccccn2)cs1 (stereo unspecified) |  | active: 20 µM |
| CCOC(=O)c1cc(NC(=O)C2C3C=CC(O3)C2C(=O)O)cc(C(=O)OCC)c1 (stereo unspecified) |  | inconclusive: 50.1 µM [inhibitor, partial curve, poor fit] |
| O=C(CNC(=O)c1ccccc1F)OCc1nc2ccccc2s1 |  | inactive |
| COc1ccc(N2CCN(C(=O)c3ccc(COc4ccc([N+](=O)[O-])cc4)o3)CC2)cc1 |  | active: 22.4 µM |
| COc1cccc(C(=O)CC(=O)C(=O)Nc2ccc([N+](=O)[O-])cc2C)c1 |  | inactive |
| Cc1ccc(-n2nnnc2SCC(=O)NC(C(=O)O)(c2ccccc2)c2ccccc2)cc1C |  | inconclusive: 50.1 µM [inhibitor, single point] |
| O=C(CCCn1c(=S)[nH]c2ccsc2c1=O)NCc1ccco1 |  | inconclusive: 28.2 µM [inhibitor, single point] |
| Cc1noc(/C=C/c2ccccn2)c1[N+](=O)[O-] |  | inconclusive: 79.4 µM [inhibitor, single point] |
| N=c1sccn1CC(=O)Nc1ccccc1-c1ccccc1 |  | inconclusive: 35.5 µM [inhibitor, partial curve] |
| Cc1[nH]c2ccccc2c1C(=O)CN1CCN(C2CCCCC2)CC1 |  | inconclusive: 3.98 µM [inhibitor, partial curve, poor fit] |
